# In all, about 360,000 compounds went through this assay and about 420 (0.12%) were called active. Inconclusive results, whose numbers are uncertain, are shown with a selection of clear calls. Rule as the data show it: active = inhibition above about 30%; inconclusive = no clear call, values can overlap the other calls; inactive = below that.
# Target: Lethal factor (Bacillus anthracis) (UniProt P15917)
# Assay: anthrax lethal factor cleavage blockers – biochemical, multiplex microsphere, MLPCN library, primary screen (AID 588501); also: plate controls were buffer without enzyme for full effect and enzyme alone for no effect
# Settings: multiplex microsphere protease cleavage assay, LF; at 10 µM; hits give high values
row,Structure (SMILES),inhibition
1,CCN(CC)CCCn1c2c(c(SCC(=O)Nc3nc4ccccc4s3)nc1=O)CCC2,inconclusive: -5.4%
2,CCCCn1c(N)c(N(CCOC)C(=O)c2ccc(C)c(S(=O)(=O)N3CCOCC3)c2)c(=O)[nH]c1=O,inconclusive: -6.9%
3,C=CCn1c(=O)/c(=C/c2cc(OC)c(OC)c(OC)c2)s/c1=C(/C#N)c1nc2ccccc2n1C,active: 60.9%
4,CCOc1cc(/C=C2\SC(=S)N(Nc3ccccc3)C2=O)ccc1O,active: 42.1%
5,Cc1cccc(-n2nnc(C(=O)NC3CCCc4ccccc43)c2N)c1 (stereo unspecified),inactive: -5.6%
6,O=C(Nc1ccc(S(=O)(=O)N2CCCC2)cc1)c1cccc(OC(F)F)c1,inconclusive: 1.3%
7,CN(Cc1ccccc1)S(=O)(=O)c1ccc(Cl)c(C(=O)NCCCN2CCCC2=O)c1,inconclusive: 0.3%
8,CCOCCOC(=O)C1=C(C)Nc2ccc(C)cc2S1,inconclusive: -0.5%
9,O=C(NC1CCCCC1)C(c1cccs1)N(C(=O)Cc1c[nH]c2ccccc12)c1ccc(F)cc1 (stereo unspecified),inconclusive: 8.9%
10,COc1ccc(C(NC(=O)C2CCN(CCc3ccccc3)CC2)c2ccccn2)cc1 (stereo unspecified),inactive: -2%
11,CCS(CC)=NS(=O)(=O)c1ccc(NC(C)=O)cc1,inactive: 0.7%
12,CC1CC(C)CN(C(=O)COC(=O)C2CCN(S(=O)(=O)c3c(Cl)cccc3Cl)CC2)C1 (stereo unspecified),inconclusive: -7.8%
13,O=C(c1cccc(Br)c1)N1CCN(c2ccc(N3CCOCC3)nn2)CC1,inconclusive: -11.5%
14,COCCn1c(SCCN2CCCCC2)nc2ccccc2c1=O,inconclusive: -24.5%
15,CC#CC[N+](C)(C)CCCCCCCCCC,inconclusive: -15.9%
16,CCc1nc(N)nc(N)c1-c1ccc(N(C)Cc2ccccc2)c([N+](=O)[O-])c1,inactive: -2.1%
17,Cc1ccc2nc(-c3ccccc3)cc(C(=O)NCC3CCCO3)c2c1 (stereo unspecified),inconclusive: 5.1%
18,Cc1cc(NC(=O)CCC(=O)N(Cc2cccs2)C(C)(C)C(=O)NC2CCCCC2)no1,inactive: 3.9%
19,O=C(Nc1nnc(COc2ccccc2F)s1)Nc1ccccc1F,inconclusive: 22.3%
20,Cc1nc(SCC(=O)NCc2ccccc2)c2oc3ccccc3c2n1,inconclusive: -19.2%
21,O=C(COc1ccc(Cl)cc1Cl)NNC(=S)Nc1ccc(F)cc1,inactive: -1.9%
22,CCN(CC(=O)Nc1ccc(OC)cc1)C(=O)Cc1ccsc1,inconclusive: -2.4%

row,Structure (SMILES),inhibition
1,Nc1nc(NCC2CCCO2)nc(Nc2ccccc2F)c1[N+](=O)[O-] (stereo unspecified),inconclusive: -7%
2,Cn1c(CN2CCN(c3cccc(Cl)c3)CC2)nc2ccccc21,inconclusive: -32.9%
3,CCCCOC(=O)CSc1nnc(-c2cc(OC)c(OC)c(OC)c2)o1,inconclusive: 19.5%
4,CCCCCN(C(=O)CCC(=O)OCC(=O)NC1CCC(C)CC1)c1c(N)n(CCCC)c(=O)[nH]c1=O (stereo unspecified),inconclusive: 7.9%
5,CC(=O)c1sc2nsc(SCCN3CCOCC3)c2c1N,inconclusive: -28.7%
6,CCc1cccc2c1NC1(CCCC1)CC2C (stereo unspecified),inconclusive: 2.2%
7,CCCOc1ccccc1C(=O)NC(CO)C(=O)O (stereo unspecified),inconclusive: 3.5%
8,Cc1nn(Cc2nnc(SCC(=O)Nc3ccc(Cl)cc3)n2C)c(C)c1[N+](=O)[O-],inconclusive: -26.6%
9,CC(C)C(=O)Nc1cccc(NC(=S)NC(=O)c2ccccc2Cl)c1,inconclusive: -7.9%
10,COC(=O)CNS(=O)(=O)c1ccc(Cc2ccc(S(=O)(=O)NCC(=O)OC)cc2)cc1,inactive: -2.1%
11,COC(=O)c1cc(OC)c(OC)cc1NC(=O)c1ccc(C)cc1,inconclusive: -41.9%
12,O=[N+]([O-])c1cccc(/C=N/NC2CCS(=O)(=O)C2)c1 (stereo unspecified),inconclusive: -11.7%
13,CC(=O)Nc1ccc(NC(=O)Cn2c(-c3ccc(F)cc3)cnc2SCC(=O)Nc2c(C)cccc2C)cc1,inconclusive: -11%
14,Cc1nc(SCC(=O)c2cccs2)c2oc3ccccc3c2n1,inactive: 2.5%
15,CCCCCCN1C[C@H](n2cc(C3CC3)nn2)[C@@H](O)C[C@@H]1c1ccccc1,inactive: -3.5%
16,O=C(OCC(=O)N1CCCc2ccccc21)c1ccc(F)c(S(=O)(=O)N2CCOCC2)c1,inconclusive: -2.2%
17,O=C(N/N=C/C=C/c1ccccc1)c1cccnc1,inconclusive: 12.8%
18,CCNC(=O)C1(C)CCCN(Cc2cccc3c(OC)cc(C(=O)OCC)cc23)C1 (stereo unspecified),inactive: 0.1%
19,CCOC(=O)[C@]12CCC=C1N(CCC1=CCCCC1)C(=O)[C@H](CC(=O)NCc1ccc(OC)c(OC)c1)C2,inactive: 3.7%
20,CCc1cccc(NS(=O)(=O)c2csc(C(N)=O)c2)c1,inactive: -8.4%
21,Cc1cc(-n2c(C)cc(C(=O)COc3cc(F)ccc3[N+](=O)[O-])c2C)no1,inconclusive: -3.2%
22,Cc1cc(C)cc(-n2cc(C(=O)O)c(=O)cc2C)c1,inactive: -1.7%

row,Structure (SMILES),inhibition
1,Cc1ccc(NC(=O)CN2C(=O)NC3(CCCC3)C2=O)nc1,inconclusive: -0.9%
2,CC(Oc1ccccc1F)C(=O)NNC(=O)Cc1ccc(S(=O)(=O)N2CCOCC2)s1 (stereo unspecified),active: 109%
3,COc1ccc(CCNC2CC(=O)N(C)C2=O)cc1OC (stereo unspecified),inactive: -1.6%
4,CC(=O)Nc1cccc(C(=O)OC(C)C(=O)N2CCc3ccccc32)c1 (stereo unspecified),inconclusive: -2.5%
5,COCCCN(C(=O)Cc1coc2cc(C)c(C)cc12)c1c(N)n(Cc2ccccc2)c(=O)[nH]c1=O,inconclusive: 4.2%
6,CCC(=O)c1ccc(OCC(=O)OC(C)C(=O)NCc2ccc3c(c2)OCO3)cc1 (stereo unspecified),inconclusive: -1.7%
7,Cc1ccc(NC(=O)CN2C(=O)NC3(CCCCC3C)C2=O)cc1S(=O)(=O)N1CCCCC1 (stereo unspecified),inconclusive: 1%
8,O=C1C(=O)N(CCS(=O)(=O)c2ccccc2)c2ccc(F)cc21,inconclusive: 0.5%
9,COc1cccc(-n2c(C)nnc2SCC(=O)Nc2ccccc2N2CCOCC2)c1,inconclusive: -20%
10,COc1ccc(NC(=O)CN(C)C(=O)CCCc2c[nH]c3ccccc23)cc1,inconclusive: 3.7%
11,CC1(CC(=O)O)SC(=O)NC1=O (stereo unspecified),inconclusive: -13.2%
12,COc1ccc(CCNC(=O)CN(c2ccccc2OC)S(C)(=O)=O)cc1,inconclusive: -17.7%
13,NC(=O)c1c(NC(=O)C2CCCO2)sc2c1CCCC2 (stereo unspecified),inactive: 2.5%
14,CCOCCSc1nc2c(c(-c3cccs3)c1C#N)CC/C2=C/c1cccs1,active: 35.1%
15,CNC(=O)C(=O)NCC1CCCN1S(=O)(=O)c1cccs1 (stereo unspecified),inconclusive: -3.8%
16,CCc1ccc(NC(=O)CSc2nncn2-c2cccnc2)cc1,inactive: 0.1%
17,O=[N+]([O-])c1ccc(Sc2ccc(Cl)c(Cl)c2)nc1,inconclusive: -23.6%
18,CSc1nnc2c3cc(F)ccc3n(Cc3ccccc3)c2n1,inconclusive: 0.1%
19,CC(=O)Nc1cccc(NC(=O)CSc2nnc(Cc3cccn3C)n2-c2ccc(F)cc2)c1,inactive: -8.3%
20,CC(C)[C@H](CN1CCC[C@H]1CN1C(N)=NC[C@H]1C(C)C)N1C[C@@H](Cc2ccccc2)N(CCCC2CCCC2)C1=N,inactive: -1.7%
21,O=C(c1cc(Cl)ccc1O)N1CCN(S(=O)(=O)Cc2ccccc2)CC1,inconclusive: 1%
22,Cc1cc(C)cc(N2C(=O)NC(=O)/C(=C\c3cccn3-c3ccccc3)C2=O)c1,active: 31%

row,Structure (SMILES),inhibition
1,Cc1cccc(NC(c2ccc(O)cc2)c2ccc3ccc(C)nc3c2O)n1 (stereo unspecified),inconclusive: 22.1%
2,CSc1ccc(S(=O)(=O)NCC(=O)OCC(=O)N2CCCC2=O)cc1[N+](=O)[O-],inconclusive: 3.6%
3,O=C(Nc1ccc(OC(F)(F)F)cc1)Oc1ccccc1N1CCOCC1,inconclusive: 3.7%
4,O=C(COC(=O)C12CC3CC(CC(O)(C3)C1)C2)Nc1cccc(Br)c1,inconclusive: 2.8%
5,CN(C)c1ccc2nsnc2c1[N+](=O)[O-],inconclusive: 11.5%
6,COc1ccc(NC(=O)CSc2nnc(Cc3ccc(C)cc3)c(=O)n2N)cc1,inconclusive: -4.5%
7,O=C(C[C@@H]1C/C=C\C[C@H](Cc2ccc(F)cc2)C(=O)OC[C@@H](c2ccccc2)NC1=O)NCCO,inactive: -5.9%
8,CC(C)(C)NS(=O)(=O)c1ccc(N2C(=O)c3ccccc3C2=O)cc1,inconclusive: -10.8%
9,Clc1ccccc1-c1nnc2n1CCCCC2,active: 36.6%
10,CC(C)C1Cc2c(C#N)c(N)sc(=S)c2CO1 (stereo unspecified),active: 47.1%
11,Cc1nn(-c2ccccc2)c2sc(C(=O)NC3CC3)cc12,inconclusive: -4.4%
12,O=c1onc(-c2ccccc2)n1-c1cc(Cl)cc(Cl)c1,inconclusive: -0.8%
13,COc1ccccc1NC(=O)Cn1nnc2sc3c(c2c1=O)CC(C)(C)OC3,inconclusive: -5.5%
14,Cc1cccc(N2CCN(C(=O)CNC(=O)Cc3ccccc3)CC2)c1C,inconclusive: -1.9%
15,CC(C)CN1C(=O)C(=O)N(CC(=O)N2c3ccccc3NC(=O)CC2C)C1=O (stereo unspecified),inconclusive: -19.6%
16,CC(C)(C)NS(=O)(=O)c1ccc(NC(=O)c2cc(-c3ccccc3)nc3ccccc23)cc1,inconclusive: -2.7%
17,COc1ccccc1NS(=O)(=O)c1ccc(C(=O)NCC2(N(C)C)CCCCC2)cc1,inconclusive: 22.7%
18,CC(=O)c1cccc(NCC(=O)N2CCN(S(=O)(=O)c3ccccc3)CC2)c1,inactive: 2.8%
19,CC(C)c1ccc(/C=C/C(=O)Nc2nc3ccc([N+](=O)[O-])cc3s2)cc1,inconclusive: -14.5%
20,CCCCN(C(=O)CN(C)CC(=O)Nc1cccc(OC)c1)c1c(N)n(CCCC)c(=O)[nH]c1=O,inactive: -11.6%

# — PubChem BioAssay AID588501 (NMMLSC, 2011)
